# Results taken from the supplement of paper PMC10037445.
# Whole data set: some 2,900 compounds, median “IRF Lucia reporter activity, fold change vs agonist alone” near 0.9, cut for the highest 2% near 2.8. The list shows a part of the results.
# Assays:
# [1] = system: RAW-Dual; assay: IRF Lucia reporter activity, fold change vs agonist alone; higher = enhanced IRF activity; details: agonist: MPLA (TLR4) […]
# Method in brief: (§1)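 Cytotoxic wells were those whose IncuCyte confluency was below 70% of agonist controls in both mask sets. The cells were RAW-Dual macrophages at 50,000 cells/well in DMEM on 384-well plates, dosed with 50 nL of library stock by pin tool, stimulated with a PRR agonist 1 h later, and kept at 37 °C, 5% CO2 for 20 hours. IRF and NF-κB reporter activity, as fold change over agonist-alone wells, came from supernatant read by QuantiLuc luminescence and QuantiBlue absorbance, respectively.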
# [2] = system: RAW-Dual; assay: IRF Lucia reporter activity, fold change vs agonist alone; cytotoxicity flag (confluency mask): not cytotoxic; higher = enhanced IRF activity
# Method in brief: as §1
# [3] = system: RAW-Dual; assay: IRF Lucia reporter activity, fold change vs agonist alone; cytotoxicity flag (confluency mask): cytotoxic (confluency <70% of control); higher = enhanced IRF activity
# Method in brief: as §1
# [4] = library stock concentration (final ~1000-fold dilution): 10 mM, cytotoxicity flag (confluency mask): not cytotoxic
# [5] = agonist: 3'3'-cGAMP (STING) 10 ug/mL
# [6] = library stock concentration (final ~1000-fold dilution): 10 mM, cytotoxicity flag (confluency mask): cytotoxic (confluency <70% of control)
structure (smiles),measurement,setting,value
O=[N+]([O-])c1ccc2c(c1)S(=O)(=O)C=C2,IRF Lucia reporter activity,[1]; [4],0.0226
O=[N+]([O-])c1ccc2c(c1)S(=O)(=O)C=C2 (library stock concentration (final ~1000-fold dilution): 10 mM),IRF Lucia reporter activity,[2]; [5],0.0121
same,IRF Lucia reporter activity,[2]; agonist: LPS (TLR4) 0.1 ug/mL,0.0195
CCCCCCCCC/C(=C\C1=C(C)C(=O)C(OC)=C(OC)C1=O)C(=O)O (library stock concentration (final ~1000-fold dilution): 10 mM),IRF Lucia reporter activity,[2]; [5],0.636
same,IRF Lucia reporter activity,[2]; agonist: LPS (TLR4) 0.1 ug/mL,1.06
CCCCCCCCC/C(=C\C1=C(C)C(=O)C(OC)=C(OC)C1=O)C(=O)O,IRF Lucia reporter activity,[1]; [4],1.01
CC(=O)NC(CS)C(=O)O (stereo not given),IRF Lucia reporter activity,[1]; [4],0.885
CC(=O)NC(CS)C(=O)O (stereo not given) (library stock concentration (final ~1000-fold dilution): 10 mM),IRF Lucia reporter activity,[2]; [5],0.952
same,IRF Lucia reporter activity,[2]; agonist: LPS (TLR4) 0.1 ug/mL,0.675
Nc1ccccc1NC(=O)c1ccc(CNC(=O)OCc2cccnc2)cc1,IRF Lucia reporter activity,[1]; [4],1.03
Nc1ccccc1NC(=O)c1ccc(CNC(=O)OCc2cccnc2)cc1 (library stock concentration (final ~1000-fold dilution): 10 mM),IRF Lucia reporter activity,[2]; [5],0.969
same,IRF Lucia reporter activity,[2]; agonist: LPS (TLR4) 0.1 ug/mL,1.08
CC1(C)CC[C@]2(C(=O)O)[C@H](O)C[C@]3(C)C(=CC[C@@H]4[C@@]5(C)CC[C@H](O)C(C)(C)[C@@H]5CC[C@]43C)[C@@H]2C1 (library stock concentration (final ~1000-fold dilution): 10 mM),IRF Lucia reporter activity,[3]; [5],0.751
same,IRF Lucia reporter activity,[3]; agonist: LPS (TLR4) 0.1 ug/mL,1.39
Cl.O=C1Cc2cc(CCN3CCN(c4nsc5ccccc45)CC3)c(Cl)cc2N1 (library stock concentration (final ~1000-fold dilution): 10 mM),IRF Lucia reporter activity,[2]; [5],0.802
same,IRF Lucia reporter activity,[2]; agonist: LPS (TLR4) 0.1 ug/mL,0.764
Cl.O=C1Cc2cc(CCN3CCN(c4nsc5ccccc45)CC3)c(Cl)cc2N1,IRF Lucia reporter activity,[1]; [4],0.607
COc1ccc(Cc2cnc(N)nc2N)cc1OC,IRF Lucia reporter activity,[1]; [4],1.1
COc1ccc(Cc2cnc(N)nc2N)cc1OC (library stock concentration (final ~1000-fold dilution): 10 mM),IRF Lucia reporter activity,[2]; [5],1.12
same,IRF Lucia reporter activity,[2]; agonist: LPS (TLR4) 0.1 ug/mL,1.01
C[C@@H](O)CCOC(=O)C[C@@H](C)O (library stock concentration (final ~1000-fold dilution): 10 mM),IRF Lucia reporter activity,[2]; [5],0.761
same,IRF Lucia reporter activity,[2]; agonist: LPS (TLR4) 0.1 ug/mL,0.967
Cc1cc(C)cc(Oc2ccc(CNC(=O)C(C)N)cc2C)c1 (stereo not given) (library stock concentration (final ~1000-fold dilution): 10 mM),IRF Lucia reporter activity,[2]; [5],0.332
same,IRF Lucia reporter activity,[2]; agonist: LPS (TLR4) 0.1 ug/mL,1.75
CC1(COc2ccc3c(c2)ncn3-c2ccc3cccc(N4CCC(N)CC4)c3n2)COC1 (library stock concentration (final ~1000-fold dilution): 10 mM),IRF Lucia reporter activity,[3]; [5],0.0398
same,IRF Lucia reporter activity,[3]; agonist: LPS (TLR4) 0.1 ug/mL,0.0341
CC1(COc2ccc3c(c2)ncn3-c2ccc3cccc(N4CCC(N)CC4)c3n2)COC1,IRF Lucia reporter activity,[1]; [6],0.0613
COc1ccccc1-c1cc(Nc2cccc(CS(N)(=O)=O)c2)ncn1 (library stock concentration (final ~1000-fold dilution): 10 mM),IRF Lucia reporter activity,[2]; [5],0.137
same,IRF Lucia reporter activity,[2]; agonist: LPS (TLR4) 0.1 ug/mL,0.158
COc1ccccc1-c1cc(Nc2cccc(CS(N)(=O)=O)c2)ncn1,IRF Lucia reporter activity,[1]; [4],0.162
O=C(O)CCc1c[nH]c2ccccc12 (library stock concentration (final ~1000-fold dilution): 10 mM),IRF Lucia reporter activity,[2]; [5],0.921
same,IRF Lucia reporter activity,[2]; agonist: LPS (TLR4) 0.1 ug/mL,1.18
Cl.Nc1ccc(Cl)cc1C(=O)C(F)(F)F (library stock concentration (final ~1000-fold dilution): 10 mM),IRF Lucia reporter activity,[2]; [5],0.946
same,IRF Lucia reporter activity,[2]; agonist: LPS (TLR4) 0.1 ug/mL,1.33
Cl.Nc1ccc(Cl)cc1C(=O)C(F)(F)F,IRF Lucia reporter activity,[1]; [4],1.22
COc1ccc(S(=O)(=O)Nc2nc(-c3cccc([N+](=O)[O-])c3)cs2)cc1OC (library stock concentration (final ~1000-fold dilution): 10 mM),IRF Lucia reporter activity,[2]; [5],0.993
same,IRF Lucia reporter activity,[2]; agonist: LPS (TLR4) 0.1 ug/mL,1.12
COc1cc2c(cc1OC)C(=O)C(CC1CCN(Cc3ccccc3)CC1)C2 (stereo not given) (library stock concentration (final ~1000-fold dilution): 10 mM),IRF Lucia reporter activity,[2]; [5],0.99
same,IRF Lucia reporter activity,[2]; agonist: LPS (TLR4) 0.1 ug/mL,0.929
COc1cc2c(cc1OC)C(=O)C(CC1CCN(Cc3ccccc3)CC1)C2 (stereo not given),IRF Lucia reporter activity,[1]; [4],0.76
Cc1cc(N2CCCCC2)nc2ccccc12 (library stock concentration (final ~1000-fold dilution): 10 mM),IRF Lucia reporter activity,[2]; [5],1.28
same,IRF Lucia reporter activity,[2]; agonist: LPS (TLR4) 0.1 ug/mL,1.3
CCOc1ccc(Cc2cc(C3OC(SC)C(O)C(O)C3O)ccc2Cl)cc1 (stereo not given) (library stock concentration (final ~1000-fold dilution): 10 mM),IRF Lucia reporter activity,[2]; [5],1.38
same,IRF Lucia reporter activity,[2]; agonist: LPS (TLR4) 0.1 ug/mL,1.12
COc1cc(-c2ccc(N=Nc3ccc4c(S(=O)(=O)O)cc(S(=O)(=O)O)c(N)c4c3O)c(OC)c2)ccc1N=Nc1ccc2c(S(=O)(=O)O)cc(S(=O)(=O)O)c(N)c2c1O,IRF Lucia reporter activity,[1]; [4],0.828
COc1cc(-c2ccc(N=Nc3ccc4c(S(=O)(=O)O)cc(S(=O)(=O)O)c(N)c4c3O)c(OC)c2)ccc1N=Nc1ccc2c(S(=O)(=O)O)cc(S(=O)(=O)O)c(N)c2c1O (library stock concentration (final ~1000-fold dilution): 10 mM),IRF Lucia reporter activity,[2]; [5],0.774
same,IRF Lucia reporter activity,[2]; agonist: LPS (TLR4) 0.1 ug/mL,0.608
CCN(CC)CCCC(C)Nc1nc(C)cc(Nc2ccc3nc(C)cc(N)c3c2)n1.Cl.Cl.Cl (stereo not given) (library stock concentration (final ~1000-fold dilution): 10 mM),IRF Lucia reporter activity,[2]; [5],1.33
same,IRF Lucia reporter activity,[2]; agonist: LPS (TLR4) 0.1 ug/mL,1.31
Cl.N=C(N)NCCCCC(N)C(=O)O (stereo not given),IRF Lucia reporter activity,"[1]; library stock concentration (final ~1000-fold dilution): 10 mM water, cytotoxicity flag (confluency mask): not cytotoxic",1.29
Cl.N=C(N)NCCCCC(N)C(=O)O (stereo not given) (library stock concentration (final ~1000-fold dilution): 10 mM water),IRF Lucia reporter activity,[2]; [5],1.35
same,IRF Lucia reporter activity,[2]; agonist: LPS (TLR4) 0.1 ug/mL,1.02
CC(C(=O)Nc1ccc(Cl)cc1)C1CCC(c2ccnc3ccc(F)cc23)CC1 (stereo not given) (library stock concentration (final ~1000-fold dilution): 10 mM),IRF Lucia reporter activity,[2]; [5],0.225
same,IRF Lucia reporter activity,[2]; agonist: LPS (TLR4) 0.1 ug/mL,0.289
COc1cc2c(cc1OC)CN(CCc1ccc(NC(=O)c3cc(OC)c(OC)cc3NC(=O)c3cnc4ccccc4c3)cc1)CC2 (library stock concentration (final ~1000-fold dilution): 10 mM),IRF Lucia reporter activity,[2]; [5],1.1
same,IRF Lucia reporter activity,[2]; agonist: LPS (TLR4) 0.1 ug/mL,1.23
COc1ccc(S(=O)(=O)NCc2ccc(C(=O)NCCc3ccc(Cl)cn3)cc2)cc1 (library stock concentration (final ~1000-fold dilution): 10 mM),IRF Lucia reporter activity,[2]; [5],0.592
same,IRF Lucia reporter activity,[2]; agonist: LPS (TLR4) 0.1 ug/mL,1.25
COc1nc(N)nc2c1ncn2C1OC(CO)C(O)C1O (stereo not given),IRF Lucia reporter activity,[1]; [4],1.03
COc1nc(N)nc2c1ncn2C1OC(CO)C(O)C1O (stereo not given) (library stock concentration (final ~1000-fold dilution): 10 mM),IRF Lucia reporter activity,[2]; [5],1.08
same,IRF Lucia reporter activity,[2]; agonist: LPS (TLR4) 0.1 ug/mL,1.09
CC1CCOC2Cn3cc(C(=O)NCc4ccc(F)cc4F)c(=O)c(O)c3C(=O)N12 (stereo not given),IRF Lucia reporter activity,"[1]; library stock concentration (final ~1000-fold dilution): 2 mM, cytotoxicity flag (confluency mask): not cytotoxic",1.2
same,IRF Lucia reporter activity,[1]; [4],1.3
CC1CCOC2Cn3cc(C(=O)NCc4ccc(F)cc4F)c(=O)c(O)c3C(=O)N12 (stereo not given) (library stock concentration (final ~1000-fold dilution): 2 mM),IRF Lucia reporter activity,[2]; [5],1.08
same,IRF Lucia reporter activity,[2]; agonist: LPS (TLR4) 0.1 ug/mL,1.17
CC1CCOC2Cn3cc(C(=O)NCc4ccc(F)cc4F)c(=O)c(O)c3C(=O)N12 (stereo not given) (library stock concentration (final ~1000-fold dilution): 10 mM),IRF Lucia reporter activity,[2]; [5],1.13
same,IRF Lucia reporter activity,[2]; agonist: LPS (TLR4) 0.1 ug/mL,1.24
CN1CCC(c2c(O)cc(O)c3c(=O)cc(-c4ccccc4Cl)oc23)C(O)C1 (stereo not given),IRF Lucia reporter activity,[1]; [6],0.0203
CN1CCC(c2c(O)cc(O)c3c(=O)cc(-c4ccccc4Cl)oc23)C(O)C1 (stereo not given) (library stock concentration (final ~1000-fold dilution): 10 mM),IRF Lucia reporter activity,[3]; [5],0.0133
same,IRF Lucia reporter activity,[3]; agonist: LPS (TLR4) 0.1 ug/mL,0.0234
C#CCN(C)Cc1ccccc1.Cl (library stock concentration (final ~1000-fold dilution): 10 mM),IRF Lucia reporter activity,[2]; [5],1
same,IRF Lucia reporter activity,[2]; agonist: LPS (TLR4) 0.1 ug/mL,1.2
C#CCN(C)Cc1ccccc1.Cl,IRF Lucia reporter activity,[1]; [4],1.02
Cl.O=S(=O)(c1cccc2c(I)cccc12)N1CCCNCC1 (library stock concentration (final ~1000-fold dilution): 10 mM),IRF Lucia reporter activity,[2]; [5],0.226
same,IRF Lucia reporter activity,[2]; agonist: LPS (TLR4) 0.1 ug/mL,1.09
Cc1ccnc2c1NC(=O)c1cccnc1N2C1CC1,IRF Lucia reporter activity,[1]; [4],0.79
Cc1ccnc2c1NC(=O)c1cccnc1N2C1CC1 (library stock concentration (final ~1000-fold dilution): 10 mM),IRF Lucia reporter activity,[2]; [5],0.975
same,IRF Lucia reporter activity,[2]; agonist: LPS (TLR4) 0.1 ug/mL,1.1
Cc1[nH]c(=O)c(C#N)cc1-c1ccncc1,IRF Lucia reporter activity,[1]; [4],0.978
Cc1[nH]c(=O)c(C#N)cc1-c1ccncc1 (library stock concentration (final ~1000-fold dilution): 10 mM),IRF Lucia reporter activity,[2]; [5],0.993
same,IRF Lucia reporter activity,[2]; agonist: LPS (TLR4) 0.1 ug/mL,0.966
CS(=O)(=O)c1ccc(C2=C(c3ccccc3)C(=O)OC2)cc1,IRF Lucia reporter activity,[1]; [4],0.958
CS(=O)(=O)c1ccc(C2=C(c3ccccc3)C(=O)OC2)cc1 (library stock concentration (final ~1000-fold dilution): 10 mM),IRF Lucia reporter activity,[2]; [5],1.07
same,IRF Lucia reporter activity,[2]; agonist: LPS (TLR4) 0.1 ug/mL,0.987
CO/N=C(\C(=O)NC1C(=O)N2C(C(=O)O)=C(CSc3nnnn3C)CSC12)c1csc(N)n1.CO/N=C(\C(=O)NC1C(=O)N2C(C(=O)O)=C(CSc3nnnn3C)CSC12)c1csc(N)n1.Cl (stereo not given) (library stock concentration (final ~1000-fold dilution): 10 mM),IRF Lucia reporter activity,[2]; [5],0.983
same,IRF Lucia reporter activity,[2]; agonist: LPS (TLR4) 0.1 ug/mL,1.36
CO/N=C(\C(=O)NC1C(=O)N2C(C(=O)O)=C(CSc3nnnn3C)CSC12)c1csc(N)n1.CO/N=C(\C(=O)NC1C(=O)N2C(C(=O)O)=C(CSc3nnnn3C)CSC12)c1csc(N)n1.Cl (stereo not given),IRF Lucia reporter activity,[1]; [4],1.03
CC(=O)c1cc([N+](=O)[O-])c(Sc2cccc(Cl)c2Cl)s1 (library stock concentration (final ~1000-fold dilution): 10 mM),IRF Lucia reporter activity,[2]; [5],1.05
same,IRF Lucia reporter activity,[2]; agonist: LPS (TLR4) 0.1 ug/mL,1.01
CC(=O)c1cc([N+](=O)[O-])c(Sc2cccc(Cl)c2Cl)s1,IRF Lucia reporter activity,[1]; [4],1.03
